In ChEMBL document CHEMBL1201862, “PubChem BioAssay data set” (2004):
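Growth conditions: 96-well plates. Treatment: test compound, 48 hours, 5 concentrations. Analysis: linear interpolation between bracketing concentrations; unreached endpoints set to highest concentration. Abbreviation: GI50, concentration required for 50% inhibition of growth.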 Calls of active or inactive are those of the source. Cut-off read from the data, not from the text of the source: active = GI50 up to about 1.1 µM and inactive = higher.

tested on: NCI-H322M; assay: inhibition of tumour cell growth, NCI panel, 48 h

**Q.** For `FC(F)(F)c1n[nH]c(SCc2ccc(Cl)cc2)n1`, which GI50 is on record?
**A.** inactive: > 100 µM

**Q.** How did the GI50 turn out when `c1ccc(C2Nc3ccccc3C3OCCCC23)cc1` (configuration not stated) was run?
**A.** inactive: 13.6 µM

**Q.** With `Cc1ccc(CCCCCOc2ccc(C3=NCCO3)cc2)s1` as the compound, how does the GI50 read?
**A.** inactive: > 100 µM

**Q.** `O=C(NC(=O)c1c(F)cccc1F)Nc1cccc(Oc2ncc(Cl)cn2)c1` was tested. Which GI50 did it give?
**A.** inactive: > 66.5 µM

**Q.** `COc1cc2c(cc1OC)C13CCN4CC5CCOC6CC(=O)N2C1C6C5CC43` (configuration not stated) was tested. Which GI50 did it give?
**A.** inactive: > 100 µM

**Q.** How did the GI50 turn out when `CN(/N=C/c1cccc2cccnc12)c1ccc([N+](=O)[O-])cc1` was run?
**A.** inactive: > 100 µM

**Q.** For `CC(=O)O[C@H]1C[C@@H](OC(C)=O)[C@@](C)(O)[C@@H]2[C@@H](OC(C)=O)[C@@]3(O)[C@H](/C=C(/CO)[C@H]4O[C@H]4[C@@H](OC(C)=O)[C@@]12C)OC(=O)[C@@H]3C`, which GI50 is on record?
**A.** inactive: > 25 µM

**Q.** How did the GI50 turn out when `COc1ccc(COCCOCc2nc(C#N)c(N)o2)cc1` was run?
**A.** inactive: > 100 µM

**Q.** Which GI50 does the source give for `COP(=O)(OC)C1=c2c(C)noc2=C2C=COC2C1=O` (configuration not stated) here?
**A.** inactive: > 100 µM

**Q.** For `O=C(/C=C\c1ccccc1-c1ccccc1)c1ccccc1`, which GI50 is on record?
**A.** inactive: > 100 µM

**Q.** How did the GI50 turn out when `C[Si](C)(C)/C=C/CN1C(=O)CCC1=O` was run?
**A.** inactive: > 100 µM

**Q.** With `CCCCCCCCCCCCCCCC(=O)OCC1OC(n2cc(F)c(=O)[nH]c2=O)C(NC(=O)OCc2ccccc2)C(O)C1O` (configuration not stated) as the compound, how does the GI50 read?
**A.** inactive: 20.5 µM

**Q.** `N/N=C1\C(=O)N(C2CCCCCC2)C(=O)C1C(=O)NC1CCCCCC1` (configuration not stated) was tested. Which GI50 did it give?
**A.** inactive: 42.6 µM

**Q.** With `Cc1ccc(NC(=O)c2cc3cc(/N=N/c4ccc(Br)cc4)ccc3oc2=O)cc1` as the compound, how does the GI50 read?
**A.** inactive: 71.3 µM

**Q.** For `COC1OC(CO)C(O)C(NC(=O)N(C)N=O)C1O` (configuration not stated), which GI50 is on record?
**A.** inactive: > 100 µM

**Q.** `CCOC(=O)c1sc2nc(SC)nc3c2c1NCN3c1ccc2c(c1)OCCCO2` was tested. Which GI50 did it give?
**A.** inactive: 7.52 µM

**Q.** `C/C(N)=[N+](/C)[O-]` was tested. Which GI50 did it give?
**A.** inactive: > 100 µM

**Q.** With `CN(C)C(=S)N=C(Nc1ccccc1)Nc1ccccc1` as the compound, how does the GI50 read?
**A.** inactive: > 100 µM

**Q.** Which GI50 does the source give for `CCOC(=O)C(CC#Cc1ccc(C#CCC(NC(C)=O)C(=O)OCC)cc1)NC(C)=O` (configuration not stated) here?
**A.** inactive: > 100 µM

**Q.** `COC(=O)[C@H]1CO[C@H]2C/C(C)=C/CC/C(C)=C/CC[C@@]3(C)O[C@@H]3C[C@H]21` was tested. Which GI50 did it give?
**A.** inactive: 11.6 µM

**Q.** How did the GI50 turn out when `CCOC(=O)c1ccc(Nc2nc3cc(C(F)(F)F)ccc3nc2-c2ccccc2)cc1` was run?
**A.** inactive: > 100 µM

**Q.** For `Cc1cnc2[nH]c(-c3ccccc3)cc(=O)c2c1`, which GI50 is on record?
**A.** active: 0.25 µM

**Q.** `Cn1c(=O)c2c(ncn2Cc2ccc(O)c([N+](=O)[O-])c2)n(C)c1=O` was tested. Which GI50 did it give?
**A.** inactive: > 100 µM

**Q.** `c1ccc(C2OCC(OC3CCCCO3)CO2)cc1` (configuration not stated) was tested. Which GI50 did it give?
**A.** inactive: > 100 µM

**Q.** With `Cc1cc(Cl)ccc1NC(=O)/C(CC(=O)CC(c1ccccc1)c1c(O)c2ccccc2oc1=O)=N\O` (configuration not stated) as the compound, how does the GI50 read?
**A.** inactive: > 100 µM

**Q.** With `COc1cc2c(cc1C)NC(=O)/C2=C/c1cccnc1` as the compound, how does the GI50 read?
**A.** inactive: 15.4 µM

**Q.** For `C=CCNC(=O)NCCCC(NC(C)=O)C(=O)NCc1ccccc1` (configuration not stated), which GI50 is on record?
**A.** inactive: > 100 µM

**Q.** How did the GI50 turn out when `CCOC(=O)C(Cc1ccc([N+](=O)[O-])cc1)NC(=O)CC1c2ccccc2-c2ccccc21` (configuration not stated) was run?
**A.** inactive: > 100 µM

**Q.** `COC(=O)CC1C(COC(C)=O)OC(n2cc(C)c(=O)[nH]c2=O)C1OC(C)=O` (configuration not stated) was tested. Which GI50 did it give?
**A.** inactive: > 100 µM

**Q.** `Cc1cn(CC2=NCCCN2)c(=O)[nH]c1=O` was tested. Which GI50 did it give?
**A.** inactive: > 100 µM

**Q.** Which GI50 does the source give for `CC(=O)NCCSC(=O)c1ccccc1` here?
**A.** active: 0.76 µM

**Q.** With `NC(=O)N/N=C(\Cc1nc2ccc(Cl)cc2nc1O)C(=O)Nc1ccc(Cl)cc1Cl` as the compound, how does the GI50 read?
**A.** inactive: > 100 µM

**Q.** Which GI50 does the source give for `CO/C(=N\N=C\c1cccc(Cl)c1)c1ccncc1` here?
**A.** inactive: > 10 µM

**Q.** With `O=C(O/N=C1/CCC/C1=C\c1ccccc1)c1ccc([N+](=O)[O-])cc1` as the compound, how does the GI50 read?
**A.** inactive: > 100 µM

**Q.** `Cc1cc2c(cc1Br)C1(C)CCC(C)C1(C)O2` (configuration not stated) was tested. Which GI50 did it give?
**A.** inactive: 60.1 µM

**Q.** Which GI50 does the source give for `OC1(c2ccccc2)C2CC=CC2C1(c1ccccc1)c1ccccc1` (configuration not stated) here?
**A.** inactive: 26.4 µM

**Q.** `CSC1(SC)CCCCCCCCCCC1` was tested. Which GI50 did it give?
**A.** inactive: 99.3 µM

**Q.** Which GI50 does the source give for `COc1c(C(=O)CC2c3c(cc4oc(C)cc(=O)c4c3OC)OC(=N)C2c2nc3ccccc3[nH]2)c(O)c(OC)c2occc12` (configuration not stated) here?
**A.** inactive: > 100 µM

**Q.** For `CC1C(c2ccccc2)=CCON1c1ccccc1` (configuration not stated), which GI50 is on record?
**A.** inactive: > 100 µM

**Q.** Which GI50 does the source give for `CCSC1=N/C(=C\c2ccco2)C(Cl)=N1` here?
**A.** inactive: > 100 µM

**Q.** Which GI50 does the source give for `CC(C)=CCCC(C)C1=C(O)C(=O)C(C)=CC1=O` (configuration not stated) here?
**A.** inactive: 31.1 µM

**Q.** For `COCOc1cc(OCOC)cc(C(=O)Oc2ccccc2)c1`, which GI50 is on record?
**A.** inactive: > 100 µM

**Q.** For `N#Cc1[nH]c(=O)n(-c2ccc(Cl)cc2)c1N`, which GI50 is on record?
**A.** inactive: > 10 µM

**Q.** How did the GI50 turn out when `O=C(C=P(c1ccccc1)(c1ccccc1)c1ccccc1)C12CC3CC(CC(C3)C1)C2` was run?
**A.** inactive: 15.5 µM

**Q.** `COc1cc2c(cc1OC)C1C(O)C(OC)C=C3CC[N+](C)(C2)C31` (configuration not stated) was tested. Which GI50 did it give?
**A.** inactive: > 100 µM

**Q.** For `O=C(CC1(O)C(=O)Nc2ccccc21)c1cccc(O)c1` (configuration not stated), which GI50 is on record?
**A.** inactive: > 100 µM

**Q.** For `O=C(/C=C/c1ccccc1)C[C@@H](O)C[C@@H]1CC=CC(=O)O1`, which GI50 is on record?
**A.** inactive: 13.6 µM
